Results on six molecules are retold here after patent US20250326826A1 (CENTRO DE INGENIER A GEN TICA Y BIOTECNOLOG A, published 2025).

Assay [1] deals with VEGF (soluble stimulus added to cell cultures). The experiment in a line: cell-based or functional assay.
In assay [2] the target is T1, Human VEGF (dendritic cell assay) (human, UniProt P15692-4 27-191, limits assumed).
T1 sequence (looked up): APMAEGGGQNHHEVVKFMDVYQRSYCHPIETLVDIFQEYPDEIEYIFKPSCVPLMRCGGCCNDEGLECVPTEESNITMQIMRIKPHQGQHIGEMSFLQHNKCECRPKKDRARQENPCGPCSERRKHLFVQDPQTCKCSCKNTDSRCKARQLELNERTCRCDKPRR
In words: cell-based or functional assay.

The target of assay [3] is T2, Recombinant human bFGF (human, UniProt P09038 part only, limits assumed).
T2 construct: Bought (Sigma); also called hFGF-2; human basic fibroblast growth factor
In words: competition ELISA, coated bFGF, competitor FGFR1.

For assay [4], the target named is T3, GST-hVEGF121 (human, UniProt P15692-9 27-147).
T3 construct: plate coating of the VEGF ELISAs; also called human VEGF; not shown: glutathione S-transferase (GST) fusion partner
T3 sequence (looked up): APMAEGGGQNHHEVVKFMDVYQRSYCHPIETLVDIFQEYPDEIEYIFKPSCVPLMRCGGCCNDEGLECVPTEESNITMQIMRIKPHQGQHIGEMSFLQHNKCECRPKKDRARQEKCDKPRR
The experiment in a line: ELISA, coated GST-hVEGF, anti-human IgG detection.

Assay [5] addresses T2, Recombinant human bFGF. In words: ELISA, coated human bFGF, anti-human IgG detection.
Assay [6] addresses T3, GST-hVEGF121. In words: competition ELISA, coated GST-hVEGF, competitor VEGFR2.

T2 sequence (P09038 143-288 limits assumed): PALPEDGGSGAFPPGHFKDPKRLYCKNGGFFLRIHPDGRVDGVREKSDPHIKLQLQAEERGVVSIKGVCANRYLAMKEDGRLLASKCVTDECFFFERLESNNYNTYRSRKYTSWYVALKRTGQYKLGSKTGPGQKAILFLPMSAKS

B1: Nb-FV1_hFc (Fc fusion)
chain: QVQLVESGGGLVQPGGSLRLSCAASGTEDGRLLTLGGSWFRQAPGQGLEAVAAIGAGDRGGATYYADSVKGRFTISRDNSKNTLYLQMNSLRAEDTAVYYCTALYERQPQLAATKVARKWGQGTLVTVSSAHHSEDPSSKAPKAPAQVQLVESGGGLVQPGGSLRLSCAASGNSAEDRLYNSYTWFRQAPGQGLEAVAAISSHFSAGLTYYADSVKGRFTISRDNSKNTLYLQMNSLRAEDTAVYYCEITSHASHNDAWSTPRTVWGQGTLVTVSSRGGGGSGGGGSA[no letters for human IgG1 Fc with E283K (EU numbers)]
notes: homodimer; also called Nb-FV1_Fc
Regarding B1, in assay [1], the “PD1 expression (%) in CD8+ cells treated with VEGF, VHH 1 µg/mL” value was 60%; the “PD1 expression (%) in CD8+ cells treated with VEGF, VHH 5 µg/mL” value was 51%; the “PD1 expression (%) in CD8+ cells treated with VEGF, VHH 10 µg/mL” value came to 43%. Further, in assay [2], the “CD86 (MFI) on dendritic cells +VEGF +LPS, VHH 1 µg/mL” value was 2000 MFI; the “CD86 (MFI) on dendritic cells +VEGF +LPS, VHH 5 µg/mL” value was determined as 3150 MFI; the “CD86 (MFI) on dendritic cells +VEGF +LPS, VHH 10 µg/mL” value was determined as 18000 MFI; the “MHCII (MFI) on dendritic cells +VEGF +LPS, VHH 1 µg/mL” value is 5440 MFI. In addition, in assay [2], the “MHCII (MFI) on dendritic cells +VEGF +LPS, VHH 5 µg/mL” value is 5300 MFI and the “MHCII (MFI) on dendritic cells +VEGF +LPS, VHH 10 µg/mL” value turned out to be 18800 MFI. Further, the IC50 in the assay with Recombinant human bFGF [3] was found to be 27 nM. In addition, in the assay with GST-hVEGF121 [4], the EC50 amounted to 1.79 nM. Moreover, the EC50 in the assay with Recombinant human bFGF [5] was 4.55 nM. The molecule also returned a concentration for half-maximal inhibition (IC50) with GST-hVEGF121 [6] of 5.56 nM.

B2: Nb-FF2_hFc (Fc fusion)
chain: QVQLVESGGGLVQPGGSLRLSCAASGTEDGRLLTLGGSWFRQAPGQGLEAVAAIGAGDRGGATYYADSVKGRFTISRDNSKNTLYLQMNSLRAEDTAVYYCTALYERQPQLAATKVARKWGQGTLVTVSSAHHSEDPSSKAPKAPAQVQLVESGGGLVQPGGSLRLSCAASGTEDGRLLTLGGSWFRQAPGQGLEAVAAIGAGDRGGATYYADSVKGRFTISRDNSKNTLYLQMNSLRAEDTAVYYCTALYERQPQLAATKVARKWGQGTLVTVSSRGGGGSGGGGSA[no letters for human IgG1 Fc with E283K (EU numbers)]
notes: Fusion to human IgG1 Fc, from CHO cells
Regarding B2, the IC50 with Recombinant human bFGF [3] worked out at 6.69 nM. In addition, the EC50 with Recombinant human bFGF [5] worked out at 2.1 nM.

B3: Nb-F3_hFc (Fc fusion)
chain: QVQLVESGGGLVQPGGSLRLSCAASGTEDGRLLTLGGSWFRQAPGQGLEAVAAIGAGDRGGATYYADSVKGRFTISRDNSKNTLYLQMNSLRAEDTAVYYCTALYERQPQLAATKVARKWGQGTLVTVSSRGGGGSGGGGSA[no letters for human IgG1 Fc with E283K (EU numbers)]
notes: as for B2
Regarding B3, in the assay with Recombinant human bFGF [3], the half-maximal inhibitory concentration (IC50) came out at 26.9 nM. Moreover, the concentration for a half-maximal effect (EC50) with Recombinant human bFGF [5] worked out at 4.51 nM.

B4: Nb-VV6_hFc (Fc fusion)
chain: QVQLVESGGGLVQPGGSLRLSCAASGNSAEDRLYNSYTWFRQAPGQGLEAVAAISSHFSAGLTYYADSVKGRFTISRDNSKNTLYLQMNSLRAEDTAVYYCEITSHASHNDAWSTPRTVWGQGTLVTVSSAHHSEDPSSKAPKAPAQVQLVESGGGLVQPGGSLRLSCAASGNSAQDRLYNSYTWFRQAPGQGLEAVAAISSHFSAGLTYYADSVKGRFTISRDNSKNTLYLQMNSLRAEDTAVYYCEITSHASHNDAWSTPRTVWGQGTLVTVSSRGGGGSGGGGSA[no letters for human IgG1 Fc with E283K (EU numbers)]
notes: homodimer
Molecule B4 returned an EC50 with GST-hVEGF121 [4] of 0.784 nM. The 50% inhibitory concentration (IC50) in the assay with GST-hVEGF121 [6] amounted to 1.12 nM.

B5: Nb-VF3_hFc (Fc fusion)
chain: QVQLVESGGGLVQPGGSLRLSCAASGNSAEDRLYNSYTWFRQAPGQGLEAVAAISSHFSAGLTYYADSVKGRFTISRDNSKNTLYLQMNSLRAEDTAVYYCEITSHASHNDAWSTPRTVWGQGTLVTVSSAHHSEDPSSKAPKAPAQVQLVESGGGLVQPGGSLRLSCAASGTEDGRLLTLGGSWFRQAPGQGLEAVAAIGAGDRGGATYYADSVKGRFTISRDNSKNTLYLQMNSLRAEDTAVYYCTALYERQPQLAATKVARKWGQGTLVTVSSRGGGGSGGGGSA[no letters for human IgG1 Fc with E283K (EU numbers)]
notes: as for B2
As for B5, the IC50 came to 26.8 nM with Recombinant human bFGF [3] and 5.46 nM with GST-hVEGF121 [6]. Moreover, the concentration for a half-maximal effect (EC50) with GST-hVEGF121 [4] was 1.88 nM; with Recombinant human bFGF [5], 4.65 nM.

B6: Nb-V1_hFc (Fc fusion)
chain: QVQLVESGGGLVQPGGSLRLSCAASGNSAEDRLYNSYTWFRQAPGQGLEAVAAISSHFSAGLTYYADSVKGRFTISRDNSKNTLYLQMNSLRAEDTAVYYCEITSHASHNDAWSTPRTVWGQGTLVTVSSRGGGGSGGGGSA[no letters for human IgG1 Fc with E283K (EU numbers)]
notes: as for B2
Turning to B6, the EC50 in the assay with GST-hVEGF121 [4] turned out to be 1.64 nM. In addition, the half-maximal inhibitory concentration (IC50) with GST-hVEGF121 [6] was determined as 5.59 nM.
